The whole screen tested about 340,000 compounds, of which about 6,900 (2%) were called active. Cut-off read from the data, not from the text of the source: active = inhibition above about 30%; inactive = below that, where a call was filed. Only a part is listed here, and it is no random draw. The source gives no active or inactive call for entries shown without one.
Molecular target: D(2) dopamine receptor (Homo sapiens) (UniProt P14416)
Assay: HTS Assay for Allosteric Antagonists of the Human D2 Dopamine Receptor: Primary Screen for Antagonists; note: 0% is about no effect
Conditions: HEK293 TREx D2 cells, calcium flux, dopamine EC80; at 10 µM; stronger effect = higher value
Method in brief: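 Measurement of antagonist activity uses fluorescent calcium dye in inducible HEK293 T-REx D2 cells: 10 s baseline, compound addition with 180 s read, EC80 dopamine addition with a further 180 s read.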

Chain of UniProt P14416 (P14416 whole entry, looked up): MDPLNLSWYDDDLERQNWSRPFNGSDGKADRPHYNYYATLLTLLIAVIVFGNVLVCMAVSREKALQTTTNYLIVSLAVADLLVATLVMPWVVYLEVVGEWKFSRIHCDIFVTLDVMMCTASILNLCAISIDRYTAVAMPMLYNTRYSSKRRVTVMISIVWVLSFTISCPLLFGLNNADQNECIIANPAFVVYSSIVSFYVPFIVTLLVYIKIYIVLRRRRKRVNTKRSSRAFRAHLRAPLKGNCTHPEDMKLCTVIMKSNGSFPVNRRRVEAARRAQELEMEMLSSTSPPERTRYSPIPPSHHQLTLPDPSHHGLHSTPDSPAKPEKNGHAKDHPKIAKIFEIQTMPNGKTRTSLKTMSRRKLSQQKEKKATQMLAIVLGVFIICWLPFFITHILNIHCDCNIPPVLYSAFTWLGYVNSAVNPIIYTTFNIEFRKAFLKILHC

Point of comparison: `Cc1nc2sccn2c(=O)c1S(=O)(=O)Nc1ccc(N2CCN(C)CC2)cc1`, inhibition 14.3%. Against it:
- CC(=O)Nc1ccc(NC(=O)CCc2c(C)nc3c(c(C)nn3-c3ccc(C)cc3)c2C)cc1 — lower, 10.9%
- CC(=O)Nc1ccccc1-c1nc2ccccc2n(C(C)C(=O)Nc2cc(Cl)ccc2C)c1=O (stereo not given) — lower, -25.1%
- CCN(CC)S(=O)(=O)c1nnc(NC(=O)COc2ccc(C)cc2)s1 — higher, 21.2%
- Cc1ccc(C)c(NC(=O)CSc2nnc(CNC(=O)c3ccccc3)n2-c2ccccc2)c1 — higher, 23.8%
- CCOc1ccc(NC(=O)c2ccc(CN3C(=O)C(C)=C(c4ccc(C)cc4)S3(=O)=O)cc2)cc1 — lower, 0.452%
- CCOc1cc(Cn2c(-c3ccc(O)c(OCC)c3)nc3ccccc32)ccc1O — higher, 14.4%
- COc1ccc(-n2c(-c3ccccc3F)nc3c(cnn3-c3ccc(C)cc3)c2=O)cc1 — lower, 5.18%
- O=C(CC1C(=O)OCCN1Cc1ccccc1)Nc1cccc(Cl)c1 (stereo not given) — lower, -3.02%
- CCCCC(=O)N1CC(=O)Nc2ccc(F)cc2C1c1ccc(F)cc1 (stereo not given) — lower, -0.815%
- CCn1c(CNC(=O)C23CC4CC(CC(C4)C2)C3)nnc1SCC(=O)Nc1ccc(C)cc1 — lower, 2.83%
- CCOc1ccccc1NC(=O)CSc1nc2ccccc2nc1Cc1ccc(C)cc1 — lower, 8.76%
- Cc1ccc2c(Sc3ccccc3)c(C(=O)NCc3ccccc3F)[nH]c2c1 — lower, 4.5%
- Cc1nc2c3cccnc3nn2c(C)c1CCC(=O)NCc1ccccc1Cl — lower, -13.5%
- CC(=O)c1ccc(NC(=O)c2sc(-n3nc(C)c(CCC(C)C)c3C)nc2C)cc1 — lower, 12.2%
- CCCOc1cccc(C(=O)Nc2cc(-c3nc4ccccc4[nH]3)ccc2C)c1 — lower, 13.4%
- COc1cc(OC)c(NC(=O)c2sc3nc4n(c(=O)c3c2C)CCCC4)cc1Cl — lower, 8.37%
- COc1ccc(S(=O)(=O)NCCc2sc(C)nc2C)cc1 — lower, 4.81%
- COc1ccc(C(=O)CSc2nc3cc(C(=O)NC4CCCC4)ccc3c(=O)n2CC2CCCO2)cc1 (stereo not given) — lower, 3.46%
- Cc1ccccc1NC(=O)Nc1csc2c1CCCC2 — lower, -20.5%
- CCOc1ccc(CN2C(=O)c3ccccc3Sc3ccc(C(=O)NCc4ccc5c(c4)OCO5)cc32)cc1 — lower, -13.2%
- Cc1cccc(C(=O)N2CCNC(=O)C2CC(=O)Nc2ccc(F)cc2)c1 (stereo not given) — lower, -6.77%
- COc1ccc(C)cc1NC(=O)C(NS(=O)(=O)c1cccs1)c1ccccc1 (stereo not given) — lower, -2.58%
- COC(=O)c1cc2oc3ccccc3c2n1CC(=O)Nc1cccc(SC)c1 — lower, -12.4%
- COc1ccc(C2C(C(=O)Nc3ccccc3)=C(C)Nc3nc(-c4ccccc4)nn32)c(OC)c1 (stereo not given) — lower, -5.89%
- Cc1cccc(NC(=O)Cn2c(=O)n(CCc3ccccc3)c(=O)c3ccccc32)c1 — lower, -0.928%
- COc1cc(OC)c(NC(=O)Cc2c(C(=O)O)c(C)cn2C)cc1Cl — higher, 26.8%
- CC(=O)N1CCCC1c1nc2ccccc2n1Cc1c(F)cccc1Cl (stereo not given) — lower, 11.2%
- CCc1ccc(OCC(=O)Nc2ccc(S(=O)(=O)Nc3onc(C)c3C)cc2)cc1 — lower, -0.676%
- COc1ccc(OC2CCN(S(=O)(=O)c3cccc(F)c3)CC2)cc1 — lower, -9.73%
- CCCCn1c(=O)c2oc3ccccc3c2n(CC(=O)Nc2cc(C)ccc2C)c1=O — lower, -20.6%
- Cc1ccc(CNC(=O)Cc2c(C(=O)O)c(C)cn2C)cc1 — lower, 13.2%
- Cc1nc2ccn(Cc3cccnc3)c(=O)c2cc1C(=O)NCc1ccccc1 — lower, -1.88%
- O=C(CSc1nnc(-c2ccccc2Br)n1-c1ccccc1)c1ccc(F)cc1 — lower, 2.71%
- O=C(NC1CCCC1)c1ccc(CSc2nc3cccnc3n2Cc2cccc(F)c2)cc1 — lower, 0.881%
- O=c1[nH]c(SCc2ccccc2)nc2c1CCCC2 — lower, -4.74%
- COC(=O)c1ccc(OCC2c3cc(OC)c(OC)cc3CCN2C(=O)c2ccc(OC)cc2)cc1 (stereo not given) — lower, 3.26%
- COc1cc(OC)c(NC(=O)NCCn2nnc3cc(S(=O)(=O)N(C)C)ccc32)cc1Cl — lower, 5.84%
- COc1ccc(-c2nn3c(=O)cc(CN4CCN(C(=O)Nc5cc(C)ccc5C)CC4)nc3s2)cc1 — lower, -13.3%
- CCCCSCCCNC(=O)C1CCN(Cc2nc(-c3ccc(CC)cc3)oc2C)CC1 — lower, -14%
- Cc1cccc(N2CCN(C(=O)c3sc4nc5n(c(=O)c4c3C)CCC5)CC2C)c1 (stereo not given) — lower, -18.5%
- CCOc1ccc(CCNC(=O)C(CC)n2nc(C)c3c(C)n(-c4ccccc4)nc3c2=O)cc1 (stereo not given) — lower, -9.41%
- Cc1cc(-c2ccc(S(=O)(=O)Nc3cccc(C)c3C)s2)on1 — lower, -1.26%
- CCOC(=O)c1c(C)[nH]c(C)c1S(=O)(=O)N1CCC(C(=O)NCc2ccc(F)cc2)CC1 — lower, 2.83%
- COc1ccc(-c2c(C#N)c(SCC(=O)Nc3ccc(C)c(C)c3)nc(C)c2C(=O)Nc2ccc(Cl)cc2)cc1 — lower, 0.482%
- Cc1oc(-c2ccccc2Cl)nc1CS(=O)CC(=O)N1CCN(c2cccc(C(F)(F)F)c2)CC1 (stereo not given) — lower, 11.4%
- CCOc1ccccc1CNC(=O)c1ccc2c(c1)N(CC)CCS2 — lower, -8.82%
- COc1cccc(CNC(=O)C(Cc2ccccc2)NS(=O)(=O)c2ccc3c(c2)CCN3C(C)=O)c1 (stereo not given) — lower, -5.37%
- CCOc1cc2c(cc1OCC)C(CC(=O)OC)N(C(=O)Nc1cc(C)cc(C)c1)CC2 (stereo not given) — lower, 2.1%
- Cc1ccc(NC(=O)CCc2nc(-c3ccccc3F)no2)c(C)c1 — lower, -15%
- COc1cc(C(=O)Nc2sc3c(c2C#N)CCCC3)c(Br)c(OC)c1OC — lower, 4.65%
- CS(=O)(=O)c1ncc(Cl)c(C(=O)N(Cc2ccc(Cl)cc2)Cc2ccco2)n1 — lower, -19.8%
- Cc1ccc(-c2noc(-c3nnn(CC(=O)Nc4ccc(C)cc4Cl)c3N)n2)cc1 — lower, 2.89%
- Cc1cc(C)cc(NS(=O)(=O)c2ccc3[nH]cc(C(=O)N4CCCCC4)c(=O)c3c2)c1 — lower, -0.69%
- Cc1noc(-c2ccc(N3CCCCC3C)c([N+](=O)[O-])c2)n1 (stereo not given) — lower, -9.45%
- COc1cc(Cl)c(C)cc1NC(=O)c1c(C)oc2nc(C)nc(N3CCCC3)c12 — lower, 0.28%
- CCc1nnc(NC(=O)CSc2nccn2Cc2ccccc2)s1 — lower, -3.77%
- O=C1CCCc2cc(S(=O)(=O)N3CCCC(C(=O)NCc4ccccc4Cl)C3)ccc2N1 (stereo not given) — lower, 8.58%
- CC(C)CCNC(=O)c1c[nH]c2ccc(S(=O)(=O)Nc3cccc(C(F)(F)F)c3)cc2c1=O — lower, 13%
- COc1ccccc1CNC(=O)C1CCN(c2ncnc3c2nc2n3CCCCC2)CC1 — lower, 9.14%
- CCc1ccc(-n2c3nc(=O)[nH]c(=O)c-3cc3c(C)nn(-c4ccccc4)c32)cc1 — the same, 14.3%
- CCc1ccc(NC(=O)Cn2cnc3nc4c(cc3c2=O)CCCC4)cc1 — lower, -24.1%
- CCOC(=O)c1cc2c(=O)n3ccccc3nc2n(CC(C)C)c1=NC(=O)C(C)(C)Oc1ccc(Cl)cc1 — lower, 2.37%
- Cc1ccc(C(=O)N2CC(=O)Nc3ccc(Br)cc3C2c2ccc(F)cc2)cc1C (stereo not given) — lower, -9.44%
- COc1ccc(CNC(=O)Cc2c(C)c3c(O)cc(C)cc3oc2=O)cc1 — lower, -2.62%
- CCN1CCN(C(=O)Cn2c(-c3cccs3)cc3cc(Cl)ccc32)CC1 — lower, 5.05%
- Cc1ccc(C)c(N2CCN(C(=O)CCc3c(C)nc4c(c3C)c(=O)n(C)c(=O)n4C)CC2)c1 — higher, 15.9%
- CC1CCc2onc(C(=O)N3CCN(c4ccc(Cl)cc4)CC3)c2C1 (stereo not given) — lower, 9.7%
- Cc1ccc(Cn2ccn(Cc3ccc(C)cc3)c(=O)c2=O)cc1 — lower, 0.0734%
- COc1ccc(N2C(=O)NC(NS(=O)(=O)c3ccc(NC(C)=O)cc3)(C(F)(F)F)C2=O)cc1 (stereo not given) — lower, -13%
- CCOc1ccc(CNC(=O)CCCn2nc(C)c3c(C)n(-c4ccc(C)cc4)nc3c2=O)cc1 — lower, -6.91%
- CCc1c(C)sc2c1CCN(C(=O)Nc1ccccc1Cl)C2c1ccc(OC)cc1 (stereo not given) — lower, 2.57%
- Cc1cc(-n2c(SCc3ccccc3F)nc3[nH]ncc3c2=O)ccc1Cl — lower, -12.5%
- Cc1ccc(-c2noc(-c3ccc(NC4CCCC4)c([N+](=O)[O-])c3)n2)cc1 — lower, 2.09%
- Cc1cc(Cl)ccc1NC(=O)C1CCCN1S(=O)(=O)c1ccc2c(c1)CCCC(=O)N2 (stereo not given) — lower, 12.3%
- CS(=O)(=O)c1ncc(N(Cc2ccco2)Cc2cccs2)c(C(=O)Nc2ccccc2F)n1 — lower, -20%
- CC(C)(C)OC(=O)N1CCC(c2nnc(SCc3ccccc3Cl)o2)CC1 — higher, 23.3%
- CCC(=O)Nc1ccc(C)cc1-c1nc2ccccc2n(CC(=O)c2ccc(C)cc2)c1=O — lower, 11.9%
- CCCCNC(=O)Cn1c(=O)cc(C)c2c(C)nn(-c3cccc(Cl)c3C)c21 — higher, 18.4%
- Cc1noc2ncnc(N3CCCC(C(=O)Nc4cc(F)ccc4F)C3)c12 (stereo not given) — lower, -2.94%
- COc1ccccc1NC(=O)C1=C(C)Nc2nc(-c3ccco3)nn2C1c1cccc(C)c1 (stereo not given) — lower, -12.2%
- CCOC(=O)c1c(C)c(C(=O)NCc2ccc(Cl)cc2)c(C)n1C — lower, -20.5%
- CCc1ccc(-n2c(=O)c3c(C)c(C(=O)N(C)C)sc3n(CC(=O)Nc3cc(Cl)ccc3C)c2=O)cc1 — lower, 13.1%

In the case of `CCOc1ccc(CN2CCCC(CO)(Cc3ccc(F)cc3)C2)cc1` (stereo not given), the inhibition is reported as active: 68.1%.
`O=C(NCC1CCCO1)c1cc2c([nH]c3ccccc32)c(-c2cccc(Br)c2)n1` (stereo not given) was tested, and the inhibition was active: 33.8%.
In the case of `Clc1ccc2nc(C3CCN(Cc4ccccc4)CC3)[nH]c2c1`, the inhibition is reported as active: 52.5%.
In the case of `CC(=O)c1ccc(N2CCN(C(=O)CN3C(=O)NC4(CCCCC4)C3=O)CC2)c(F)c1`, the inhibition is reported as active: 30.7%.
For `O=C(/C=C/c1ccco1)N1CCCC(c2ccccc2)C1` (stereo not given), the inhibition was active: 55.8%.
For `Cc1cc(OCCCCCN2CCCC2)ccc1Cl`, the inhibition was active: 58.8%.
In the case of `O=C(COCc1cc(-c2ccc3c(c2)OCO3)on1)N1CCCCC1`, the inhibition is reported as active: 77.7%.
In the case of `COc1ccc(CCNS(=O)(=O)c2cc3c4c(c2)CC(=O)N4CCC3)cc1`, the inhibition is reported as active: 34.7%.
For `Cn1c(CCCOc2ccc(Cl)cc2Cl)nnc1SCC(=O)Nc1nccs1`, the inhibition was active: 31.9%.
With `CCOC(=O)N1CCN(C/C(C)=C/c2ccccc2)CC1` the inhibition was active: 63.4%.
In the case of `COc1ccccc1CNC(=O)c1cc(S(=O)(=O)N2CCCC2)cn1C`, the inhibition is reported as active: 36.6%.
In the case of `COc1cccc(OC)c1C(=O)OCC(=O)N1CC(C)CC(C)C1` (stereo not given), the inhibition is reported as active: 32%.
